# From PubChem BioAssay (Tox21)
# This list was built around the results that the source calls inconclusive (neither active nor inactive); the mix of calls is not that of the screen. For part of these data: Potencies of inconclusive entries are doubtful fits and often do not repeat. More than one record can exist for a structure, and the calls need not agree. Calls of active or inactive are those of the source. Unless noted, calls come from the whole dose curve; as a rule, active = well fitted curve in the direction sought with a large enough effect in the repeat runs; inconclusive = weak or mixed curves; inactive = no such curve, though single readings can be large; an effect the other way counts as inactive or inconclusive.
# Key:
# [1] = A CellTox Green Cytotoxicity Assay to monitor cytotoxicity in HepG2 cells - 0 hour (AID 1224882); conditions: CellTox Green fluorescence; note: potency is the fitted concentration of half-maximal effect; nearly all actives have a fitted effect of over 35% in size
# Method in brief: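 HepG2 cells were seeded together with the CellTox Green dye at 600 cells/well, left 5 h at 37 C/5% CO2, then given compounds in DMSO. Fluorescence from dye bound to dead-cell DNA was read repeatedly over 40 h of treatment at 37 C.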
# [2] = qHTS assay to identify small molecule antagonists of the androgen receptor (AR) signaling pathway using the MDA cell line in the presence of 0.5 nM R1881 - cell viability counter screen (AID 1259242); conditions: MDA-kb2 viability, CellTiter-Fluor protease fluorescence, 16 h; series mostly up to 92.4 µM; note: nearly all actives have a fitted effect of over 45% in size; note: potency is the fitted concentration of half-maximal effect
# Method in brief: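 MDA-kb2 cells (human breast carcinoma, stably carrying MMTV-luciferase reporter) were exposed to compounds with 0.5 nM R1881 (final) for 16 hr at 37C, 0% CO2; viability then read as live-cell protease fluorescence (CellTiter-Fluor, 30 min) in the same wells.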
# [3] = qHTS assay to identify small molecule agonists of the hypoxia (HIF-1) signaling pathway - cell viability counter screen (AID 1224844; calls by dose curve; note: potency is the fitted concentration of half-maximal effect; nearly all actives have a fitted effect of over 50% in size); conditions: HRE-bla ME-180 viability, CellTiter-Glo luminescence, 17 h; series mostly up to 76.8 µM
# Method in brief: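 HRE-bla ME-180 cells in medium with 0.5% dialyzed FBS were preincubated 5 hrs at 37C, exposed to compounds for 17 hrs, then viability was read as CellTiter-Glo luminescence after 30 min at room temperature, in the reporter wells.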
# [4] = qHTS assay to test for compound auto fluorescence at 460 nm (blue) in HepG2 cell free culture (AID 720685); conditions: Cell-free culture medium, blue autofluorescence 405/460 nm; series mostly up to 46 µM; note: potency is the fitted concentration of half-maximal effect
# Method in brief: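 Compound (23 nL) or DMSO pinned into cell-free MEM with 10% FBS; blue fluorescence read at 405/460 nm excitation/emission, expressed as auto-fluorescence equivalency to triamterene.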
# [5] = Caspase-3/7 induction in CHO-K1 cells by small molecules, qHTS assay (AID 1346980); conditions: CHO-K1 caspase-3/7 induction, Caspase-Glo luminescence, 17 h; series mostly up to 92.4 µM; note: potency is the fitted concentration of half-maximal effect; nearly all actives have a fitted effect of over 15% in size
# Method in brief: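 Wild-type cells were seeded at 1,500 per well and settled 5 hr at 37 C, 5% CO2, then exposed to DMSO-dissolved compounds for 17 hr. Caspase-Glo 3/7 reagent was added, and luminescence was read after 30min at room temperature.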
# [6] = biological target: Nuclear receptor subfamily 1 group I member 3 (Homo sapiens) (UniProt Q14994); test: qHTS assay to identify small molecule antagonists of the constitutive androstane receptor (CAR) signaling pathway (AID 1224838); conditions: HepG2-CYP2B6-hCAR luciferase, CITCO-stimulated, 24 h; series mostly up to 92.4 µM; note: % is set by controls: 0 for no effect and ±100 for the full control effect; nearly all actives have a fitted effect of over 40% in size
# Sequence of UniProt Q14994 (Q14994 whole entry, looked up): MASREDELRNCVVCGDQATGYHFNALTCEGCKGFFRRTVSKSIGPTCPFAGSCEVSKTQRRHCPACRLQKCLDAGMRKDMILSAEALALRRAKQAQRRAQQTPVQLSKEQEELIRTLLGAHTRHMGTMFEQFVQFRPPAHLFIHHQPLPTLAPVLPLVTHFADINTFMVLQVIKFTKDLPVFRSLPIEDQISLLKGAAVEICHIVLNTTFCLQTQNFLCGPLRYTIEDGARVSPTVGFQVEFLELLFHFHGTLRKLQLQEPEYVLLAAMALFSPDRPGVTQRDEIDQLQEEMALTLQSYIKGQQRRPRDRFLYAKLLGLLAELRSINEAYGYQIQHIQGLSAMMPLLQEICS
# Method in brief: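 HepG2 cells stably co-transfected with hCAR and a CYP2B6-2.2kb luciferase reporter were seeded 4 h before compound addition at 15 concentrations. Cells were stimulated with 50 nM CITCO (final) for 24 h at 37 C; luciferase luminescence was then read.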
# [7] = qHTS RealTime-Glo MT Cell Viability Assay in HepG2 cells - 8 hour (AID 1224873); conditions: RealTime-Glo luminescence; series mostly up to 76.8 µM; note: nearly all actives have a fitted effect of over 55% in size; note: potency is the fitted concentration of half-maximal effect
# Method in brief: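 HepG2 cells mixed with RealTime-Glo MT reagents (NanoLuc plus cell-permeant prosubstrate) were seeded at 600 cells/well, incubated 5 h at 37 C/5% CO2, then pinned with compounds in DMSO; nonlytic luminescence tracked viability during 40 h treatment.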
# [8] = biological target: Androgen receptor (Homo sapiens) (UniProt P10275); test: qHTS assay to identify small molecule antagonists of the androgen receptor (AR) signaling pathway using the MDA cell line (AID 743042; note: potency is the fitted concentration of half-maximal effect; nearly all actives have a fitted effect of over 55% in size); conditions: MDA-kb2 AR-luc, MMTV luciferase, R1881 antagonist, 16 h; series mostly up to 70.3 µM
# Sequence of UniProt P10275 (P10275 whole entry, looked up): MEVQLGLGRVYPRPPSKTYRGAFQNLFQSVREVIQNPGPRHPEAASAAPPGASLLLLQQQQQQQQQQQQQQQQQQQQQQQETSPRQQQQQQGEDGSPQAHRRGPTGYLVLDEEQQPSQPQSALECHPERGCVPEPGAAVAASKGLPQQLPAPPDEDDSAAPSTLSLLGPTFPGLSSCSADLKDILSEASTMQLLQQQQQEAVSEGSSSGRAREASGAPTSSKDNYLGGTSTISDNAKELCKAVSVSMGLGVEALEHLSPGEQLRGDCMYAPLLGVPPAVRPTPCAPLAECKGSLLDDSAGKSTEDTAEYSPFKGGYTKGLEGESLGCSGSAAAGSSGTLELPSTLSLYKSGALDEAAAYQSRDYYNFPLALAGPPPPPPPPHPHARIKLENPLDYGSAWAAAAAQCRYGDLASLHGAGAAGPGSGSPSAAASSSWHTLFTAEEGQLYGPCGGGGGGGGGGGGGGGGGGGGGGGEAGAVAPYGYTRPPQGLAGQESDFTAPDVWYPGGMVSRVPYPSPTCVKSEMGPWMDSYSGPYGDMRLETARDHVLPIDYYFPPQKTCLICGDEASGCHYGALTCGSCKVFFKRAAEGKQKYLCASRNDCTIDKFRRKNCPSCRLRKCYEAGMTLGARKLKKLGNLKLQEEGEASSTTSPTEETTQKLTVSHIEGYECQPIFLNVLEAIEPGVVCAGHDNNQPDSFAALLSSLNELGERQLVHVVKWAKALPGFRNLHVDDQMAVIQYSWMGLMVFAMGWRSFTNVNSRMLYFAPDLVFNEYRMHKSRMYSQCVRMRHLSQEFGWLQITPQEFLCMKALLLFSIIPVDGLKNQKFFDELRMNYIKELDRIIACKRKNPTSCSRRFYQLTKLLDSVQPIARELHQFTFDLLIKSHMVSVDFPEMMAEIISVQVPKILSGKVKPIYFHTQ
# Method in brief: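 MDA-kb2 cells (human breast carcinoma, stably carrying an MMTV-luciferase reporter responsive to AR and GR) were plated at 3,000 cells/well and preincubated 5 hr at 37C, then given compound plus R1881 agonist for 16 h. ONE-Glo luminescence was read.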
# [9] = qHTS assay to identify small molecule antagonists of the estrogen related receptor signaling pathway with the pleiotropic PPARgamma coactivator (PGC) from Tox21 10K library (AID 1224841; call rule not given here; note: potency is the fitted concentration of half-maximal effect; actives are mostly falling curves and most rising ones were filed inactive; nearly all actives have a fitted effect of over 50% in size); conditions: PGC/ERR reporter cell line, ONE-Glo luciferase, 18 h; series mostly up to 92.4 µM
# Method in brief: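 PGC/ERR reporter cells were seeded at 2,000 cells/well and held 6 hours at 37 C/5% CO2 before pin-tool addition of compounds in DMSO. After 18 hours at 37 C, One-Glo was added and luminescence read after 30 minutes at room temperature.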
# [10] = biological target: Thyrotropin-releasing hormone receptor (Homo sapiens) (UniProt P34981); test: qHTS assay to identify small molecule antagonists of the thyrotropin-releasing hormone receptor (TRHR) signaling pathway (AID 1346877; active = well fitted inhibition curve with a large enough effect in the repeat runs, not every such curve was filed as active; inconclusive = weak or mixed curves; note: % is set by controls: 0 for no effect and ±100 for the full control effect); conditions: TRHR-HEK293, TRH-induced calcium fluorescence, antagonist mode; series mostly up to 51.3 µM
# Sequence of UniProt P34981 (P34981 whole entry, looked up): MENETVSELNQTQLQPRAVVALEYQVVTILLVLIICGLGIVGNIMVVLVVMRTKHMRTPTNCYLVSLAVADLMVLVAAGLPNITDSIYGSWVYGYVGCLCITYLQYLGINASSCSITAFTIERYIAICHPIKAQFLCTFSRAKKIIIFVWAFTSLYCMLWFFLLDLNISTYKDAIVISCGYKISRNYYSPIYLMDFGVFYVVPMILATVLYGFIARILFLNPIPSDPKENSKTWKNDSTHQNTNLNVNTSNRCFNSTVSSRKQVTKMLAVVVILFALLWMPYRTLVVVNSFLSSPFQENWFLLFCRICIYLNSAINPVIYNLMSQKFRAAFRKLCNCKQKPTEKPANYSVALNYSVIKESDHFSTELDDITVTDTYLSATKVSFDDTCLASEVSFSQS
# Method in brief: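 TRHR-expressing HEK293 cells were seeded, cultured 18 h at 37 °C, then loaded with calcium dye for 2 h. Compounds were pre-incubated 5 min at room temperature before 1 nM TRH (final) was added, and kinetic fluorescence was recorded for 3 min.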
# [11] = Caspase-3/7 induction in HepG2 cells by small molecules, qHTS assay (AID 1346978); conditions: HepG2 caspase-3/7 activation, Caspase-Glo luminescence, 17 h; series mostly up to 92.4 µM; note: % is set by controls: 0 for no effect and ±100 for the full control effect; nearly all actives have a fitted effect of over 15% in size
# Method in brief: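 Wild-type HepG2 cells (2,000/well) were settled 5 h at 37 C, 5% CO2, then exposed to compounds in DMSO for 17 h. Caspase-3/7 activity was read by luminescence 30 min after adding Caspase-Glo 3/7 reagent at room temperature.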
# [12] = biological target: Androgen receptor (Homo sapiens) (UniProt P10275); test: qHTS assay to identify small molecule agonists of the androgen receptor (AR) signaling pathway in the presence of an antagonist (AID 1259381; calls by dose curve; note: potency is the fitted concentration of half-maximal effect; nearly all actives have a fitted effect of over 15% in size); conditions: MDA-kb2 MMTV-luciferase, AR agonist + nilutamide, 16 h; activation: at 92.4 µM (top of the series)
# Method in brief: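 MDA-kb2 human breast carcinoma cells carrying an MMTV-luciferase reporter (AR- and GR-responsive) were treated with compounds at 15 concentrations plus 3.0uM final nilutamide for 16hr at 37C without CO2; luminescence was read after ONE-Glo addition.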
# [13] = qHTS assay to test for compound auto fluorescence at 460 nm (blue) in HepG2 cells (AID 720687); conditions: autofluorescence 405/460 nm, 1 h; series mostly up to 91.3 µM; note: % is set by controls: 0 for no effect and ±100 for the full control effect
# Method in brief: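 Cells (2,000/well in MEM with 10% FBS) attached overnight at 37 C, then were exposed to compound or DMSO for 1 hr at 37 C, 5% CO2. Fluorescence read at Ex/Em 405/460 nm, expressed as triamterene-equivalent signal.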
# [14] = biological target: Nuclear receptor subfamily 1 group I member 2 (Homo sapiens) (UniProt O75469); test: CYP3A4 induction through human pregnane X receptor (PXR) by small molecules, qHTS assay (AID 1346984); conditions: DPX-2 HepG2 PXR, CYP3A4-luciferin luminescence, 24 h; activation: at 46.1 µM (top of the series); note: nearly all actives have a fitted effect of over 40% in size; note: potency is the fitted concentration of half-maximal effect; for activation: % is set by controls: 0 for no effect and ±100 for the full control effect
# Method in brief: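 DPX-2 cells (HepG2 co-transfected with PXR and CYP3A4 promoter-luciferase) treated with compounds 24 h at 37C; luciferin-IPA CYP3A4 substrate 3uM final added for 3 h, then One-Glo; luminescence read. qHTS format.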
# [15] = biological target: Nuclear receptor subfamily 1 group I member 2 (Rattus norvegicus) (UniProt Q9R1A7); test: Rat pregnane X receptor (rPXR) activation by small molecules, qHTS assay (AID 1346983); conditions: rPXR luciferase reporter cells, One-Glo luminescence, 24 h; max activation: active compounds read high; note: % is set by controls: 0 for no effect and ±100 for the full control effect; nearly all actives have a fitted effect of over 20% in size
# Sequence of UniProt Q9R1A7 (Q9R1A7 whole entry, looked up): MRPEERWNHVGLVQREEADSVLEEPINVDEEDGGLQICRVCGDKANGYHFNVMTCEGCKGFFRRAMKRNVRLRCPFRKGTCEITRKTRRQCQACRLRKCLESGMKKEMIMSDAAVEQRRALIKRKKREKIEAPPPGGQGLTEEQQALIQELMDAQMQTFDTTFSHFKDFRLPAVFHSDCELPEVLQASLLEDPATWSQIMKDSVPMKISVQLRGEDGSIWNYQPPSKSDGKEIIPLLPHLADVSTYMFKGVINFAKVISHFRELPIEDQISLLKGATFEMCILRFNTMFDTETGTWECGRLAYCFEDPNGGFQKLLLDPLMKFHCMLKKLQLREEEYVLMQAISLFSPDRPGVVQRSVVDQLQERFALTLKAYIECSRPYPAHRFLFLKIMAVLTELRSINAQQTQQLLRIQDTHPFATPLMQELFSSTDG
# Method in brief: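 Cell-based rPXR luciferase reporter assay, 2,000 cells per well, rested 5hr at 37 C before compound addition in DMSO, then 24 hr at 37 C. One-Glo reagent was added and luminescence read after 30 min at room temperature.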
# [16] = qHTS assay to identify small molecule antagonists of the estrogen related receptor (ERR) signaling pathway - cell viability counter screen (AID 1224818); conditions: ERR reporter cell line viability counter screen; series mostly up to 46.1 µM;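 note: potency is the fitted concentration of half-maximal effect; viability measured after 17.5 h of compound exposure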
# Method in brief: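 ERR reporter cells plated 6 h at 37 C/5% CO2, then compounds in DMSO pin-transferred and incubated 17.5 h at 37 C. Viability read as CellTiter-Fluor fluorescence after 30 min at 37 C.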
# [17] = qHTS assay to identify small molecule antagonists of the estrogen related receptor (ERR) signaling pathway (AID 1224819; note: potency is the fitted concentration of half-maximal effect; nearly all actives have a fitted effect of over 50% in size); conditions: ERR reporter cell line, luciferase inhibition; series mostly up to 46.1 µM
# Method in brief: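 ERR reporter cells were plated at 2,000 cells/well and left 6 h at 37 C/5% CO2 before pin-tool transfer of compounds in DMSO. After 18 h at 37 C, One-Glo was added and luminescence was read 30 min later at room temperature.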
# [18] = qHTS assay to identify small molecule agonists of the estrogen related receptor (ERR) signaling pathway (AID 1224820); conditions: ERR reporter cell line, luciferase agonist mode; series mostly up to 46.1 µM; note: % is set by controls: 0 for no effect and ±100 for the full control effect
# Method in brief: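 ERR reporter cells (NTP line) plated 2,000/well, incubated 6 h at 37 C/5% CO2, then pinned with compounds in DMSO and held 18 h at 37 C. One-Glo added; luminescence read after 30 min at room temperature.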
# [19] = qHTS assay to identify small molecule antagonists of the estrogen related receptor signaling pathway with the pleiotropic PPARgamma coactivator (PGC) cell viability counter screen (AID 1224822; note: potency is the fitted concentration of half-maximal effect); conditions: ERR/PGC reporter cell line viability counter screen; series mostly up to 46.1 µM
# Method in brief: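 PGC/ERR cells were seeded at 2,000 cells/well, rested 6 h at 37 C/5% CO2, then given compounds in DMSO by pin tool and incubated 17.5 h at 37 C. Viability came from CellTiter-Fluor fluorescence after 30 min.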
# [20] = qHTS assay to identify small molecule agonists of the estrogen related receptor signaling pathway with the pleiotropic PPARgamma coactivator (PGC) (AID 1224823); conditions: ERR/PGC reporter cell line, luciferase agonist mode; series mostly up to 46.1 µM; note: potency is the fitted concentration of half-maximal effect
# Method in brief: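 PGC/ERR reporter cells were seeded, rested 6 h at 37 C/5% CO2, then exposed to compounds in DMSO by pin transfer for 18 h at 37 C. Luciferase activity was read as luminescence after One-Glo reagent and 30 min at room temperature.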
# Tags give direction and shape of the fitted curve or compound fluorescence and quenching.
smiles,measurement,setting,value
CCCCCCCCCCCC#N,Potency,[1],active: 45.2 µM
same,Potency,[2],inactive
CCCCCCCCP(=O)(O)O,Potency,[3],"inconclusive: 38.9 µM [cytotoxic, partial curve]"
O=C(O)CCl,Potency,[4],"inconclusive: 44.7 µM [fluorescent, partial curve, poor fit]"
CN(C)c1nc(=O)n(C2CCCCC2)c(=O)n1C,Potency,[5],"inconclusive: 32.6 µM [activator, partial curve]"
Nc1cnn(-c2ccccc2)c(=O)c1Cl,Potency,[4],inactive
CON(C)C(=O)Nc1ccc(Br)cc1,Potency,[6],inactive
CCOC(=O)C(Cl)Cc1cc(-n2nc(C)n(C(F)F)c2=O)c(F)cc1Cl (configuration not stated),Potency,[7],"inconclusive: 43.6 µM [falling, partial curve]"
Cc1ccccc1CO[C@@H]1C[C@@]2(C(C)C)CC[C@]1(C)O2,Potency,[8],"inconclusive: 48.6 µM [inhibitor, partial curve]"
CCC(CC)(CNC(=O)CCCO)c1cccc(OC)c1,Potency,[7],inactive
C=C(C)C(=O)OCC(CC)CCCC (configuration not stated),Potency,[9],active: 31.2 µM
same,Potency,[2],"inconclusive: 62.3 µM [cytotoxic, single point]"
CNN,Potency,[7],inactive
CC(C)[N+](C)(CCC(C(N)=O)(c1ccccc1)c1ccccc1)C(C)C,Potency,[10],inactive
same,Potency,[11],inactive
CCC(=O)O[C@@H]1C=C2CCC3C(CCC4(C)C3CC[C@@H]4OC(=O)CC)C2CC1 (some centres not stated),Potency,[12],active: 0.188 µM
CC(Oc1cc(Cl)c(Cl)cc1Cl)C(=O)O (configuration not stated),Potency,[13],inactive
NC(=O)c1cc([N+](=O)[O-])cc([N+](=O)[O-])c1,Potency,[14],inactive
CCCOC(=O)c1cncn1C(C)c1ccccc1 (configuration not stated),Potency,[6],inactive
CCOC(=O)/C=C(C)/C=C/C[C@@H](C)CCCC(C)C,Potency,[5],"inconclusive: 54.5 µM [activator, single point]"
same,max activation,[15],inactive: -2.62%
COCC(=O)N(c1c(C)cccc1C)C(C)C(=O)OC (configuration not stated),Potency,[14],"inconclusive: 7.94 µM [activator, full curve, poor fit]"
CC1(C(=O)O)C2CCC(O2)C1(C)C(=O)O (configuration not stated),Potency,[16],"inconclusive: 5.96 µM [cytotoxic, full curve]"
same,Potency,[17],inconclusive: 28.7 µM [inhibitor]
same,Potency,[18],inactive
same,Potency,[19],inconclusive: 6.68 µM [cytotoxic]
same,Potency,[20],inconclusive: 3.35 µM [activator]
